Experimental data reported in article PMC10668032.
Some of the results follow. At the low end of the ranking, values are background and their order means little.

Target: SIX1-Q177R homeodomain (UniProt Q15475)
Assay: universal protein binding microarray
Conditions: Universal all-10-mer PBM (8x60K, AMADID 030236), 300 nM GST-tagged protein, Alexa Fluor 488 anti-GST; buffer, salt, pH and temperature not stated; high values mean tight binding; most listed sequences are background and not binding sites; double strand, one strand shown

| Sequence | binding signal [E-score] |
| --- | --- |
| ATTCGTTA | -0.203 |
| GCGGATAC | 0.268 |
| CCTTCGGA | -0.042 |
| ATTTCGTG | 0.122 |
| ACCGTTTG | 0.0107 |
| AGCGGCGG | -0.0867 |
| ATATCCGG | -0.0116 |
| AACGAGCT | -0.073 |
| CAATACAG | -0.0552 |
| AAACCCTC | -0.00947 |
| AGTGGAGG | -0.102 |
| AAGTTAGT | -0.0495 |
| CTTTTGAC | -0.00078 |
| AGCCGACT | -0.0346 |
| TAGTGACA | 0.211 |
| AACAAAGC | -0.23 |
| CATCAGAA | -0.0815 |
| AGAAACCG | 0.0383 |
| AACGGACC | -0.0941 |
| ACAGGTAG | -0.0968 |
| CTCGACAC | 0.419 |
| AAACCAGT | -0.161 |
| GTGTTAGA | 0.41 |
| GCTGAAAC | -0.0491 |
| ATGAGCTA | -0.243 |

| Sequence | binding signal [E-score] |
| --- | --- |
| AGTAACTA | -0.113 |
| AGTGCTAA | 0.0602 |
| ACTTGGAA | -0.0424 |
| CAGTGAGA | -0.243 |
| AGTCATTG | 0.0182 |
| CGTATAGC | -0.00682 |
| AACGCGAA | -0.0762 |
| ATCGATTG | -0.205 |
| CCACTTGA | 0.0543 |
| AGTGCCGC | -0.131 |
| CTGCGCTC | -0.136 |
| GGTGATAC | 0.313 |
| AAATAGCT | -0.294 |
| CCGGCTTA | 0.125 |
| CAACCCAG | 0.0495 |
| ATTGGTTG | -0.162 |
| AGAATAGG | -0.0721 |
| GATCTTGA | -0.0532 |
| CCGCTCAC | -0.00782 |
| AGCACTAC | 0.0363 |
| CCTTGCTC | -0.0168 |
| AGTTGTAT | 0.115 |
| TGCTCCCA | 0.0563 |
| CTTATGCC | 0.0225 |
| CAGTTTTA | -0.204 |

| Sequence | binding signal [E-score] |
| --- | --- |
| CACGGCCG | 0.188 |
| CGTAGTCA | -0.128 |
| ATATTGCG | -0.111 |
| CACAGTTA | 0.063 |
| GGCTTCCC | -0.127 |
| AGGCCAGA | -0.127 |
| ACATCACA | 0.116 |
| GGCCGTAC | 0.115 |
| AAAATTCA | -0.124 |
| CGTTTAGC | 0.0763 |
| TGGGCAAA | -0.195 |
| AGTAGAGA | 0.00533 |
| CAGCTGAG | -0.0761 |
| ACCGCATC | 0.0177 |
| ACCATCCA | 0.215 |
| AATTTATG | -0.0755 |
| CGGAGCAC | 0.116 |
| ATTGACAC | 0.438 |
| GGCAATAC | -0.123 |
| TCTGCACA | 0.00479 |
| AGATGACG | -0.0955 |
| AAGTCTTC | -0.289 |
| TACCAAAA | -0.0799 |
| CTTCGTGA | -0.00836 |
| GATAACAC | 0.433 |

| Sequence | binding signal [E-score] |
| --- | --- |
| CCACCCAC | 0.0993 |
| ATCGAGAC | -0.0448 |
| GAGGCGCC | -0.238 |
| GAAGGAGA | -0.111 |
| CCTACCTC | -0.148 |
| ACCCCCGC | 0.318 |
| ATATTTGG | -0.0639 |
| CATTACCC | 0.0884 |
| AATCCATA | -0.0257 |
| GCGCCAAC | -0.0964 |
| ATGGGACA | 0.123 |
| CACATCGC | -0.0298 |
| CACTGTTC | 0.059 |
| AATGGCCA | -0.231 |
| ACCTCCTC | 0.0431 |
| AAACTTGA | -0.244 |
| TCCGCTAA | -0.0821 |
| CGGTTTGC | -0.197 |
| AGACGCGA | -0.00654 |
| CTAGAAAG | -0.0423 |
| ATGTCCTG | -0.291 |
| AATAACAG | -0.128 |
| AATGCTGC | -0.16 |
| ATTGAGAG | -0.0682 |
| GACGTGTA | 0.368 |

| Sequence | binding signal [E-score] |
| --- | --- |
| CACCGCGC | 0.286 |
| ACAAATGA | -0.241 |
| CCCGCTAC | 0.0698 |
| GGAGGCAA | -0.0709 |
| GCGTATGA | 0.0432 |
| GCTTATCC | 0.108 |
| ATAAACGC | -0.137 |
| TATCGTCA | 0.211 |
| CTTGGAGC | -0.13 |
| TGCCGGAA | 0.00717 |
| AGCACAGG | -0.068 |
| AACCACTT | -0.13 |
| CGGCGTAG | -0.0256 |
| CGGACATC | -0.21 |
| AGTTGGTA | 0.0683 |
| AGGTTTCA | 0.0855 |
| AGCATACA | 0.132 |
| AAGAGCGA | -0.213 |
| CTGCTTCA | -0.0646 |
| AGCTTTGC | -0.274 |
| ATGGGTCC | 0.0249 |
| GACTGCTC | -0.244 |
| TCCATCCA | -0.0863 |
| CGTCCACC | -0.132 |
| CCATTAAA | -0.102 |

| Sequence | binding signal [E-score] |
| --- | --- |
| AGGCCCAT | -0.243 |
| CCATTAAG | 0.0396 |
| ACCCAAGT | 0.157 |
| GCATTGCC | -0.0851 |
| CTGCTCTC | -0.145 |
| CAGTTTCA | -0.125 |
| CGGCGGTA | -0.0315 |
| ATACTTTA | -0.041 |
| CAGGGTGC | 0.124 |
| GTTCGACA | 0.211 |
| AAGGGTGC | 0.149 |
| ACAACCGC | 0.106 |
| AGCTGAGA | -0.237 |
| AGATATAG | -0.0576 |
| CCAAGTCA | -0.0639 |
| TTCAGGAA | -0.209 |
| ACTGCGGG | 0.0815 |
| CGAGTGCC | -0.0391 |
| GGCGTCTA | -0.0699 |
| CTACTTCC | -0.054 |
| CCACAAAA | -0.0585 |
| AAAGTACC | -0.0231 |
| CCGCTACG | -0.0722 |
| GCATACGA | -0.145 |
| TGCGGTAA | -0.151 |

| Sequence | binding signal [E-score] |
| --- | --- |
| CGTGACAC | 0.454 |
| AAAATGTG | -0.112 |
| CGGATGGA | -0.152 |
| GGGGTCAA | 0.253 |
| GGTACTAA | 0.127 |
| CGGGCGTA | 0.0802 |
| ATTGGGAG | -0.055 |
| AGGGGGAC | -0.0123 |
| CCTGTTGC | -0.066 |
| CAATGTGA | -0.0861 |
| GAGCGATC | -0.169 |
| ACTAGTCA | -0.0327 |
| ATAGTCAG | -0.124 |
| CAAGCGAA | -0.216 |
| AGTAATGG | 0.0534 |
| GACGCCCA | 0.0997 |
| AGGAAGCG | -0.235 |
| ACTAGATG | 0.0643 |
| GATCTATA | -0.116 |
| ATGGGCCC | -0.238 |
| GGCAGGCC | -0.303 |
| CTCGCAAA | -0.108 |
